According to the supplement of paper PMC4604168 (melanoma cell lines):
This is one part of the list. Many values rest on one well or one pass, so single values are uncertain.

Tests used:
Assay in all cases: cell count relative to DMSO control; melanoma cells; higher = more viable cells
Conditions in all cases: library dose: standard library concentration; 72 h
A101D = tested on: A101D
A2058 = tested on: A2058
A375 = tested on: A375
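Further: cells treated in 1,536-well plates, then fixed and DAPI-stained, with nuclei counted from automated high-throughput microscope images.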

| SMILES | cell count (A101D) | cell count (A2058) | cell count (A375) |
| --- | --- | --- | --- |
| Clc1ccc(Nc2nnc(Cc3ccncc3)c3ccccc23)cc1 [vatalanib] + Cn1nnc2c(C(N)=O)ncn2c1=O [temozolomide] (first compound 10 µM, partner dose 10 µM) | 63.5% | 48.8% | 91.2% |
| OCc1c[nH]c2ccccc12 [Indole-3-carbinol] + Cc1cc(N2CCOCC2)cc2[nH]c(-c3c(NC[C@@H](O)c4cccc(Cl)c4)cc[nH]c3=O)nc12 [BMS536924] (first compound 4 µM, partner dose 1 µM) | 114% | 86.3% | 93.7% |
| OCc1c[nH]c2ccccc12 [Indole-3-carbinol] + Cn1nnc2c(C(N)=O)ncn2c1=O [temozolomide] (first compound 4 µM, partner dose 10 µM) | 64.2% | 40% | 91.5% |
| Clc1ccc(Nc2nnc(Cc3ccncc3)c3ccccc23)cc1 [vatalanib] + COc1ccc(Cl)c(Nc2nc3ccccc3nc2NS(=O)(=O)c2cccc(NC(=O)C(C)(C)N)c2)c1 [XL147] (first compound 10 µM, partner dose 4 µM) | 94.3% | 67.8% | 71.7% |
| OCc1c[nH]c2ccccc12 [Indole-3-carbinol] + Clc1ccc(Nc2nnc(Cc3ccncc3)c3ccccc23)cc1 [vatalanib] (first compound 4 µM, partner dose 10 µM) | 89.4% | 77.7% | 90.4% |
| OCc1c[nH]c2ccccc12 [Indole-3-carbinol] + Cn1c(Nc2ccc(C(F)(F)F)cc2)nc2cc(Oc3ccnc(-c4ncc(C(F)(F)F)[nH]4)c3)ccc21 [CHIR265] (first compound 4 µM, partner dose 0.4 µM) | 66.4% | 88.8% | 63.3% |
| COCC[n+]1c2c(n(Cc3cnccn3)c1C)C(=O)c1ccccc1C2=O + Cc1cc(N2CCOCC2)cc2[nH]c(-c3c(NC[C@@H](O)c4cccc(Cl)c4)cc[nH]c3=O)nc12 [BMS536924] (first compound 0.002 µM, partner dose 1 µM) | 80.7% | 16.9% | 70% |
| Nc1cccc2c1CN(C1CCC(=O)NC1=O)C2=O (stereo not drawn) [lenalidomide] + CC1(C)NC(=O)N(c2ccc([N+](=O)[O-])c(C(F)(F)F)c2)C1=O [nilutamide] (first compound 5 µM, partner dose 5 µM) | 94.8% | 97.5% | 101% |
| C#Cc1cccc(Nc2ncnc3cc(OCCOC)c(OCCOC)cc23)c1 [erlotinib] + Cn1cncc1[C@@](N)(c1ccc(Cl)cc1)c1ccc2c(c1)c(-c1cccc(Cl)c1)cc(=O)n2C [tipifarnib] (first compound 4 µM, partner dose 0.05 µM) | 74.1% | 73.8% | 81.2% |
| C#Cc1cccc(Nc2ncnc3cc(OCCOC)c(OCCOC)cc23)c1 [erlotinib] + O=C(O)c1ccc(-c2c[nH]c3ncc(-c4ccccc4)cc23)cc1C1CCCC1 [GSK650394] (first compound 4 µM, partner dose 0.8 µM) | 63.5% | 84.5% | 94.3% |
| Nc1cccc2c1CN(C1CCC(=O)NC1=O)C2=O (stereo not drawn) [lenalidomide] + CC(C)(C)c1cnc(CSc2cnc(NC(=O)C3CCNCC3)s2)o1 [SNS-032] (first compound 5 µM, partner dose 0.05 µM) | 83.1% | 95.9% | 110% |
| C#Cc1cccc(Nc2ncnc3cc(OCCOC)c(OCCOC)cc23)c1 [erlotinib] + Cn1nnc2c(C(N)=O)ncn2c1=O [temozolomide] (first compound 4 µM, partner dose 10 µM) | 71% | 38.5% | 89.7% |
| C#Cc1cccc(Nc2ncnc3cc(OCCOC)c(OCCOC)cc23)c1 [erlotinib] + O=C(Nc1cccc(Cl)c1)Nc1ncc(CCNc2ncnc3ccsc23)s1 [SNS314] (first compound 4 µM, partner dose 0.004 µM) | 44.5% | 54% | 67.2% |
| Nc1cccc2c1CN(C1CCC(=O)NC1=O)C2=O (stereo not drawn) [lenalidomide] + Cn1cncc1[C@@](N)(c1ccc(Cl)cc1)c1ccc2c(c1)c(-c1cccc(Cl)c1)cc(=O)n2C [tipifarnib] (first compound 5 µM, partner dose 0.05 µM) | 75.8% | 73.2% | 120% |
| OCc1c[nH]c2ccccc12 [Indole-3-carbinol] + O=C(O)c1ccc(-c2c[nH]c3ncc(-c4ccccc4)cc23)cc1C1CCCC1 [GSK650394] (first compound 4 µM, partner dose 0.8 µM) | 79% | 79.2% | 87.4% |
| Nc1cccc2c1CN(C1CCC(=O)NC1=O)C2=O (stereo not drawn) [lenalidomide] + C=CCn1c(=O)c2cnc(Nc3ccc(N4CCN(C)CC4)cc3)nc2n1-c1cccc(C(C)(C)O)n1 [MK1775] (first compound 5 µM, partner dose 0.1 µM) | 62.2% | 86.6% | 60.2% |

| SMILES | cell count (A101D) | cell count (A2058) | cell count (A375) |
| --- | --- | --- | --- |
| Cn1c(Nc2ccc(C(F)(F)F)cc2)nc2cc(Oc3ccnc(-c4ncc(C(F)(F)F)[nH]4)c3)ccc21 + Cn1nnc2c(C(N)=O)ncn2c1=O [temozolomide] (first compound 0.4 µM, partner dose 10 µM) | 50.6% | 36.6% | 70.1% |
| Clc1ccc(Nc2nnc(Cc3ccncc3)c3ccccc23)cc1 [vatalanib] + O=C(O)c1ccc(-c2c[nH]c3ncc(-c4ccccc4)cc23)cc1C1CCCC1 [GSK650394] (first compound 10 µM, partner dose 0.8 µM) | 72.2% | 90.6% | 92.9% |
| O=C(CCCCCCC(=O)Nc1ccccc1)NO [vorinostat] + Cc1ccc(NC(=O)c2cccc(N(C)C)c2)cc1NC(=O)c1ccc(O)cc1 [ZM336372] (first compound 0.4 µM, partner dose 10 µM) | 74.5% | 111% | 109% |
| C#Cc1cccc(Nc2ncnc3cc(OCCOC)c(OCCOC)cc23)c1 [erlotinib] + O=C(CCCCCCC(=O)Nc1ccccc1)NO [vorinostat] (first compound 4 µM, partner dose 0.4 µM) | 70.4% | 103% | 130% |
| OCc1c[nH]c2ccccc12 [Indole-3-carbinol] + Cn1cncc1[C@@](N)(c1ccc(Cl)cc1)c1ccc2c(c1)c(-c1cccc(Cl)c1)cc(=O)n2C [tipifarnib] (first compound 4 µM, partner dose 0.05 µM) | 66.8% | 70.9% | 102% |
| COCC[n+]1c2c(n(Cc3cnccn3)c1C)C(=O)c1ccccc1C2=O + CC1(C)NC(=O)N(c2ccc([N+](=O)[O-])c(C(F)(F)F)c2)C1=O [nilutamide] (first compound 0.002 µM, partner dose 5 µM) | 74.2% | 29.7% | 80.6% |
| OCc1c[nH]c2ccccc12 [Indole-3-carbinol] + CO[C@@H]1[C@H](N(C)C(=O)c2ccccc2)C[C@H]2O[C@]1(C)n1c3ccccc3c3c4c(c5c6ccccc6n2c5c31)C(=O)NC4 [Midostaurin] (first compound 4 µM, partner dose 0.4 µM) | 72.8% | 79.8% | 78.8% |
| Nc1cccc2c1CN(C1CCC(=O)NC1=O)C2=O (stereo not drawn) [lenalidomide] + O=C(Nc1cccc(Cl)c1)Nc1ncc(CCNc2ncnc3ccsc23)s1 [SNS314] (first compound 5 µM, partner dose 0.004 µM) | 94.4% | 68.2% | 112% |
| C#Cc1cccc(Nc2ncnc3cc(OCCOC)c(OCCOC)cc23)c1 [erlotinib] + CC(C)(C)c1cnc(CSc2cnc(NC(=O)C3CCNCC3)s2)o1 [SNS-032] (first compound 4 µM, partner dose 0.05 µM) | 53.6% | 80.6% | 88.6% |
| Cn1c(Nc2ccc(C(F)(F)F)cc2)nc2cc(Oc3ccnc(-c4ncc(C(F)(F)F)[nH]4)c3)ccc21 + O=C(Nc1cccc(Cl)c1)Nc1ncc(CCNc2ncnc3ccsc23)s1 [SNS314] (first compound 0.4 µM, partner dose 0.004 µM) | 59.7% | 61.4% | 78% |
| OCc1c[nH]c2ccccc12 [Indole-3-carbinol] + COc1cc2c(Oc3ccc4[nH]c(C)cc4c3F)ncnc2cc1OCCCN1CCCC1 [cediranib] (first compound 4 µM, partner dose 2 µM) | 100% | 108% | 118% |
| O=C(CCCCCCC(=O)Nc1ccccc1)NO [vorinostat] + CC(C)(C)c1cnc(CSc2cnc(NC(=O)C3CCNCC3)s2)o1 [SNS-032] (first compound 0.4 µM, partner dose 0.05 µM) | 73.4% | 84.8% | 101% |
| Cn1c(Nc2ccc(C(F)(F)F)cc2)nc2cc(Oc3ccnc(-c4ncc(C(F)(F)F)[nH]4)c3)ccc21 + OCCn1cc(-c2cnc3nnn(Cc4ccc5ncccc5c4)c3n2)cn1 [PF04217903] (first compound 0.4 µM, partner dose 5 µM) | 55.4% | 75.7% | 101% |
| C#Cc1cccc(Nc2ncnc3cc(OCCOC)c(OCCOC)cc23)c1 [erlotinib] + CC1(C)NC(=O)N(c2ccc([N+](=O)[O-])c(C(F)(F)F)c2)C1=O [nilutamide] (first compound 4 µM, partner dose 5 µM) | 67.7% | 78.3% | 105% |
| C#Cc1cccc(Nc2ncnc3cc(OCCOC)c(OCCOC)cc23)c1 [erlotinib] + COc1cc(Nc2ncc(F)c(Nc3ccc4c(n3)NC(=O)C(C)(C)O4)n2)cc(OC)c1OC [Tamatinib] (first compound 4 µM, partner dose 2 µM) | 53.4% | 81% | 114% |
